Source: PubChem BioAssay AID2675 (National Center for Advancing Translational Sciences (NCATS), 2010)
Among all 280,000 compounds or so, about 100 (0.036%) were called active. The inconclusive results got no clear call from the source; some entries with a clear call stand among them for comparison. Calls follow the shape of the dose curve; as a rule, active = well fitted inhibition curve with a large enough effect in the signal ratio, with a control signal flat (not every such curve was filed as active); inconclusive = small, poorly fitted or top-dose-only effect, or effect the other way, or a change in a side signal; inactive = no such curve, though single readings can be large or run the other way; the % refers to the signal ratio. Where the call is inconclusive, the potency comes from a doubtful curve fit. “Side channel” marks fits to a control or component signal instead of the main read-out.

Molecular target: Muscleblind-like protein 1 (Homo sapiens) (UniProt Q9NR56)
Chain of UniProt Q9NR56 (Q9NR56 whole entry, looked up): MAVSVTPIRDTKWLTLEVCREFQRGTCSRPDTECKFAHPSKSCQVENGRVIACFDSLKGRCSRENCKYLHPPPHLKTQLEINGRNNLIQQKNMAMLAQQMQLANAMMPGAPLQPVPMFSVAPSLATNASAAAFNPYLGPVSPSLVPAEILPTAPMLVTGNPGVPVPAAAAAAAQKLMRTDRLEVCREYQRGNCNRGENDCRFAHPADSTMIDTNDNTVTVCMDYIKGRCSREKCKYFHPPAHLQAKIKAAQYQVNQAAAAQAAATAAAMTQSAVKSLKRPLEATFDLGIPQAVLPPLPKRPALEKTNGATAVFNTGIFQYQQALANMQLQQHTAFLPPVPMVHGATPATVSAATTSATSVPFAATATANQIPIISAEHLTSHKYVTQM
Assay: qHTS Assay for Inhibitors of MBNL1-poly(CUG) RNA binding
Conditions: TR-FRET MBNL1-His/biotin-(CUG)12 binding, 665/545 ratio; series mostly up to 57.5 µM
Outline: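 Inhibition of protein-RNA binding appears as loss of TR-FRET between terbium anti-His antibody on MBNL1-His and streptavidin-XL665 on biotin-(CUG)12. Activity is normalized to buffer-only and uninhibited-complex controls.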
Potency is read from the fitted curve at half-maximal effect; tags tell the direction and shape of the fitted curve or compound fluorescence and quenching.

SMILES	Potency
c1ccc(-c2ccccc2OCCCCN2CCCCC2)cc1	inconclusive: 0.112 µM [fluorescent, side channel, partial curve, poor fit]
CCOC(=O)Cn1c(-c2ccc(OC)cc2)c(-c2ccc(OC)cc2)nnc1=O	inconclusive: 12.6 µM [quencher, side channel, partial curve]
CC(C)NC(=O)c1ccccc1NC(=O)Cc1ccc([N+](=O)[O-])cc1	inconclusive: 22.4 µM [quencher, side channel, single point]
Cc1ccc2c(c1)C1CN(C)CCC1N2S(=O)(=O)c1ccc(Oc2ccc([N+](=O)[O-])cc2)cc1 (stereo not given)	inconclusive: 17.8 µM [quencher, side channel, partial curve]
COc1cccc(N2C(=O)[C@H]3C(C(=O)c4cnccn4)=NN[C@H]3C2=O)c1	inconclusive: 25.1 µM [quencher, side channel, single point]
Cc1ccc(C(=O)/C=C\C(=O)c2ccc(C)cc2)cc1	inactive
C=CCN(CC=C)C(=O)C(=O)c1cc(C)n(-c2ccc([N+](=O)[O-])cc2)c1C	inconclusive: 25.1 µM [quencher, side channel, single point]
O=C(O)c1ccc(/C=N/NC(=O)c2ccc(Br)cc2)cc1	inconclusive: 39.8 µM [quencher, side channel, single point]
CN(C)c1cc[n+](CC(=O)Nc2cc(C(F)(F)F)ccc2Cl)cc1	inactive
CC1Cc2ccccc2N1C(=O)CSc1nnc(CNc2ccccc2)o1 (stereo not given)	inconclusive: 0.631 µM [quencher, side channel, full curve, poor fit]
Cc1cc(C)nc(SC2c3cccc4cccc(c34)C2NS(=O)(=O)c2ccccc2)n1 (stereo not given)	inactive
O=C(Nc1ccccc1F)c1ccc2nc(N3C(=O)CCC3=O)sc2c1	inactive
Cc1nn(CC(=O)N2CCOCC2)c(=O)c2nn(-c3ccccc3)c(C)c12	inactive
CCc1ccc(N2C(=O)C(Cl)=C(N3CCOCC3)C2=O)cc1	inconclusive: 3.98 µM [quencher, side channel, partial curve]
COc1ccc(C)cc1NC(=O)NNC(=O)C(C)Oc1ccc([N+](=O)[O-])cc1 (stereo not given)	inconclusive: 11.2 µM [quencher, side channel, partial curve]
O/C(=C\c1nc2ccccc2nc1/C=C(\O)c1ccccc1)c1ccccc1	inconclusive: 8.91 µM [quencher, side channel, full curve]
CCOc1ccc(NC(=O)CC2SC(N)=NC2=O)c([N+](=O)[O-])c1 (stereo not given)	inconclusive: 14.1 µM [quencher, side channel, partial curve]
CNC(=O)c1cc2cc(OC)ccc2oc1=O	inconclusive: 12.6 µM [quencher, side channel, partial curve]
Cc1ccc(C(C(=O)NCC2CCCO2)N(Cc2ccccc2)C(=O)c2ccc(-c3ccccc3)[nH]2)o1 (stereo not given)	inactive
O=C(CCCN1C(=O)/C(=C\c2cccs2)SC1=S)Nc1cccnc1	inconclusive: 0.891 µM [quencher, side channel, partial curve]

SMILES	Potency
CC(C)C(C(=O)O)N1C(=O)/C(=C/c2cccn2C)SC1=S (stereo not given)	inconclusive: 39.8 µM [quencher, single point]
CC(C)CCNC(=O)C1CCC(CNS(=O)(=O)c2cccc3nsnc23)CC1 (stereo not given)	inconclusive: 15.8 µM [quencher, side channel, partial curve]
COc1cc2c(cc1OC)C(c1cccc([N+](=O)[O-])c1)NC(=O)C2 (stereo not given)	inconclusive: 15.8 µM [quencher, side channel, partial curve]
Cc1cccc(OCCC(=O)NCC(=O)Nc2c(C)cccc2C)c1	inconclusive: 0.316 µM [fluorescent, side channel, partial curve]
CC(C)OC(=O)c1cc(C(=O)c2cc(Br)ccc2O)coc1=N	inactive
COc1ccc(C)cc1S(=O)(=O)Nc1ccccc1	inconclusive: 3.98 µM [quencher, side channel, single point]
O=C(CCS(=O)(=O)c1cccc2nsnc12)NCc1ccccc1	inconclusive: 7.08 µM [quencher, partial curve]
Cc1ccc(S(=O)(=O)Nc2nc3ccccc3nc2N2CCN(c3ccccc3F)CC2)cc1	inactive
CCN1C(=O)/C(=C/N(C)c2ccccc2)OC1=S	inconclusive: 12.6 µM [quencher, side channel, partial curve]
COc1ccc(NS(=O)(=O)c2ccc(N3C(=O)CCC3=O)cc2)cc1	inconclusive: 7.08 µM [quencher, side channel, single point]
O=C(NCC1CCCO1)c1ccc(NS(=O)(=O)c2cccc([N+](=O)[O-])c2)cc1 (stereo not given)	inconclusive: 14.1 µM [quencher, side channel, partial curve]
c1ccc2c(c1)nc(Nc1ccc(N3CCCCC3)cc1)c1nncn12	inconclusive: 17.8 µM [quencher, side channel, partial curve]
Cn1c(N/N=C/c2cccs2)cc(=O)n(C)c1=O	inconclusive: 31.6 µM [quencher, side channel, partial curve]
O=[N+]([O-])c1cc(S(=O)(=O)N2CCCC2)ccc1SCCO	inconclusive: 25.1 µM [quencher, side channel, partial curve]
CC(/C=C1\SC(=O)N(CC(=O)Nc2cccc(O)c2)C1=O)=C\c1ccccc1	inconclusive: 28.2 µM [quencher, side channel, partial curve, poor fit]
Cc1ccc(S(=O)(=O)Oc2ccccc2/C=N/NC(=O)c2c(Cl)cnn2C)cc1	inactive
CC(C)=CC(=O)N1CC[C@@H](N2CCN(c3ccccc3F)CC2)[C@H](O)C1	inactive
CCOC(=O)C1CCN(S(=O)(=O)c2cccc3nonc23)CC1	inconclusive: 15.8 µM [quencher, side channel, partial curve]
CCOC(=O)c1[nH]c(C)c(C(=O)N(CC)CC)c1C	inactive
Cc1cccn2c(=O)c3cc(C(=O)NCCCOC(C)C)sc3nc12	inconclusive: 10 µM [quencher, side channel, partial curve]

SMILES	Potency
CN1C=CC=C/C1=C1\SC(=S)N(Cc2ccccc2)C1=O	inconclusive: 17.8 µM [quencher, partial curve]
COc1cc(NC(=S)NC(=O)c2cc(C)cc(C)c2)ccc1NC(=O)c1cccs1	inactive
COc1ccc(OC)c(C(=O)NC(CC(N)=O)c2ccc(NCc3ccc(F)c(F)c3)c([N+](=O)[O-])c2)c1 (stereo not given)	inconclusive: 14.1 µM [quencher, side channel, single point]
Nc1ccc(Oc2ccc3c(c2)C(=O)N(CC2CCCO2)C3=O)cc1 (stereo not given)	inconclusive: 12.6 µM [quencher, partial curve]
Cn1c(=NC(=O)c2ccc(S(=O)(=O)N3CCCc4ccccc43)cc2)sc2cc(S(C)(=O)=O)ccc21	inconclusive: 39.8 µM [fluorescent, side channel, single point]
CCOC(=O)c1ccc(NC(=S)Nc2ccc(Cl)cn2)cc1	inconclusive: 3.16 µM [fluorescent, side channel, partial curve, poor fit]
CCCCNC(=O)COC(=O)CNC(=O)c1cc(Cl)cc([N+](=O)[O-])c1	inconclusive: 10 µM [quencher, side channel, partial curve]
Cn1c(C(=O)NCCN2CCOCC2)cc2c(=O)n3ccccc3nc21	inconclusive: 3.16 µM [quencher, full curve, poor fit]
C=CCSc1nnc(-c2cc3c(-c4ccccc4)nn(C)c3s2)n1C	inactive
O=C(NC1CCCC1)C(c1ccncc1)N(C(=O)Cn1nnc(-c2ccccc2F)n1)c1cccc(F)c1 (stereo not given)	inactive
CN1CCN(c2nnc(-c3ccccc3)c(-c3ccccc3)n2)CC1	inconclusive: 15.8 µM [quencher, side channel, partial curve]
COc1ccc(CCn2c(=N)c(C(=O)NCc3ccco3)cc3c(=O)n4ccccc4nc32)cc1	inconclusive: 10 µM [quencher, side channel, partial curve]
CC(=O)c1ccc(-c2ccc(C(=O)N3CCN(c4ccc(F)cc4)CC3)o2)cc1	inconclusive: 14.1 µM [quencher, side channel, partial curve]
O=C(CNC(=O)c1ccc2c(c1)OCO2)N/N=C/c1cc(Br)ccc1O	inactive
CN1CCN(S(=O)(=O)c2cccc(S(=O)(=O)c3ccc(Cl)c(Cl)c3)c2)CC1	inconclusive: 11.2 µM [quencher, partial curve]
O=C(N/N=C/c1cccnc1)c1ccc([N+](=O)[O-])cc1	inconclusive: 3.98 µM [quencher, side channel, partial curve]
O=c1cc(CN2CCOCC2)c2cc(Cl)c(O)cc2o1	inconclusive: 12.6 µM [quencher, partial curve]
Cc1ccc(C(=O)/C=C/Nc2cccc(O)c2)cc1	inconclusive: 35.5 µM [quencher, side channel, single point]
COc1cc(C(=O)NNC(=S)NC(=O)c2ccc(F)cc2)cc(OC)c1OC	inactive
O=C(NC(Cc1ccccc1)C(=O)O)/C(=C/c1ccccc1)NC(=O)c1ccccc1 (stereo not given)	inconclusive: 3.16 µM [fluorescent, side channel, partial curve]
